# Among all 390,000 compounds or so, about 4,700 (1.2%) were called active. Inconclusive results, whose numbers are uncertain, are shown with a selection of clear calls. Calls come from the whole dose curve; as a rule, active = well fitted inhibition curve with a large enough effect; inconclusive = small, poorly fitted or top-dose-only effect, or another doubt; inactive = no such curve, though single readings can be large or run the other way. A potency beside an inconclusive call is a rough fit, not a confirmed value.
# Target: DNA polymerase eta (Homo sapiens) (UniProt Q9Y253)
# Test: qHTS for Inhibitors of Polymerase Eta
# Details: recombinant Pol eta, fluorescent DNA replication assay; series mostly up to 114 µM
# Summary of the method: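 Pol eta (10 nM) was preincubated with compounds for 15 min at room temperature, after which fluorescent replication substrate (50 nM final) was added to start the reaction. Fluorescence was read kinetically at 0 and 10 min.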
# Potency is the fitted concentration of half-maximal effect; tags give direction and shape of the fitted curve.
# Chain of UniProt Q9Y253 (Q9Y253 whole entry, looked up): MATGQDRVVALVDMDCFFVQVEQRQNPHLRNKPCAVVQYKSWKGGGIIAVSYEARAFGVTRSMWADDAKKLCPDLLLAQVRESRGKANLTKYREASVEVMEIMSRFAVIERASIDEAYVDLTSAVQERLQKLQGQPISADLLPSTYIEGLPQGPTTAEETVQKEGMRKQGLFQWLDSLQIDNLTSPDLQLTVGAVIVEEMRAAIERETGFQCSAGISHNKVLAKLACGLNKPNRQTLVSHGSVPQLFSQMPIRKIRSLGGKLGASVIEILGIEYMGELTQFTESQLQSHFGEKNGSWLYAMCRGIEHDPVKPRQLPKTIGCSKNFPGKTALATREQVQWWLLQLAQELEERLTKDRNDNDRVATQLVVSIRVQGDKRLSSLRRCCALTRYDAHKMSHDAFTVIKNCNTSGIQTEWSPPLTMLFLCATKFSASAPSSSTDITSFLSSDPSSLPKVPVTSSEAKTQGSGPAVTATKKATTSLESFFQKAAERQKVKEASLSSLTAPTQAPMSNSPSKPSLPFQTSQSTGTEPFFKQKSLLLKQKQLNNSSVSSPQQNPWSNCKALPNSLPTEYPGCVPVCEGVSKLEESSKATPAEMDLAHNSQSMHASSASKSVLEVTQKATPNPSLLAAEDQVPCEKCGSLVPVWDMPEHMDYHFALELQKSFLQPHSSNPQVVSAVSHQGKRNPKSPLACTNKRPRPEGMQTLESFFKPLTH
row,Compound,Potency
1,CC(C)(C)OC(=O)[C@H](Cc1ccccc1)NC(=O)c1nc[nH]c1C(=O)NC1CCN(C(=O)OC(C)(C)C)CC1,"inconclusive: 28.2 µM [inhibitor, partial curve, poor fit]"
2,COc1ccccc1NC(=O)c1cc2c(CO)cnc(C)c2oc1=Nc1ccccc1,inactive
3,CCOC(=O)c1c(C)[nH]c(C)c1C(=O)CSc1nc2ccccc2c(=O)n1-c1ccccc1C,"inconclusive: 89.1 µM [inhibitor, partial curve, poor fit]"
4,C[C@@H]1NC(=O)c2cc([N+](=O)[O-])cc(I)c2NCCCC[C@@H](C(N)=O)NC(=O)[C@H](CC(N)=O)NC1=O,"inconclusive: 28.2 µM [inhibitor, full curve, poor fit]"
5,COc1ccc(N=Cc2c(O)n(-c3cccc(C)n3)c(=O)c3ccccc23)c(OC)c1,"inconclusive: 2.82 µM [inhibitor, partial curve, poor fit]"
6,NC(=O)C(c1ccc(Cl)cc1)c1ccc(Sc2ccc(Cl)cc2)nn1 (configuration not stated),"inconclusive: 56.2 µM [inhibitor, partial curve, poor fit]"
7,COc1ccccc1Nc1nc(Cl)nc(NC(C)(C)C)n1,"inconclusive: 89.1 µM [inhibitor, partial curve, poor fit]"
8,COc1ccc(NC(=O)CSc2oc(-c3cccs3)nc2S(=O)(=O)c2ccc(Br)cc2)c(OC)c1,"inconclusive: 100 µM [inhibitor, partial curve, poor fit]"
9,COc1ccc(N2C(=O)CC(Nc3ccc(F)cc3)C2=O)c([N+](=O)[O-])c1 (configuration not stated),inactive
10,COc1ccccc1CNCc1cc(Br)ccc1OC,"inconclusive: 100 µM [inhibitor, partial curve, poor fit]"
11,CC(=O)OC(C)C1C2=C(C(=O)CC1(C)O)C(=O)c1c(ccc(-c3ccc4c(c3O)C(=O)C3=C(C4=O)C(C(C)OC(C)=O)C(C)(O)CC3=O)c1O)C2=O (configuration not stated),"inconclusive: 28.2 µM [inhibitor, partial curve, poor fit]"
12,O=C(Nc1ccc(NC(=O)c2ccc(S(=O)(=O)c3ccccc3)cc2)cc1)c1ccccc1,"inconclusive: 22.4 µM [inhibitor, partial curve, poor fit]"
13,CC1CCN(S(=O)(=O)c2ccc(C(=O)OC(C)C(=O)NC3CCCCC3C)cc2)CC1 (configuration not stated),"inconclusive: 22.4 µM [inhibitor, partial curve, poor fit]"
14,COc1ccccc1-c1cc2nc(-c3ccccc3)cc(N3CCN(C(=O)c4ccco4)CC3)n2n1,inactive
15,Cc1cc(C(=O)CCl)c(C)n1-c1cccc(S(=O)(=O)N2CCOCC2)c1,"inconclusive: 56.2 µM [inhibitor, partial curve]"
16,Cc1ccc(N(CC(C)C)S(=O)(=O)c2nnc(NC(=O)c3ccco3)s2)cc1,"inconclusive: 89.1 µM [inhibitor, single point]"
17,O=C(COC(=O)/C=C/c1ccco1)Nc1ccccc1,"inconclusive: 89.1 µM [inhibitor, partial curve]"
18,O=C(N/N=C/c1cc(Br)c(Br)o1)C(O)c1ccccc1 (configuration not stated),active: 50.1 µM
19,COc1ccc(S[C@@H](CCN2CC[C@H](NC(=O)OCc3ccccc3)CCC2=O)c2ccccc2)cc1,inactive
20,COc1c(O)ccc(/C=C(\C#N)c2nc3ccccc3[nH]2)c1[N+](=O)[O-],"inconclusive: 14.1 µM [inhibitor, full curve, poor fit]"
21,CC(C)CCC(CCN1CCOCC1)c1ccc2c(c1)OCO2 (configuration not stated),inactive

row,Compound,Potency
1,COc1cccc(CC(=O)Nc2nc(-c3cc(OC)ccc3OC)cs2)c1,"inconclusive: 100 µM [inhibitor, partial curve, poor fit]"
2,Cc1ccc(-n2c(Cc3cccn3C)nnc2SCC(=O)NCc2ccc3c(c2)OCO3)cc1,inactive
3,Cc1ccc(NC(=O)CN2C(=O)S/C(=C\c3ccc(C(=O)O)cc3)C2=O)cc1,inactive
4,COc1ccc(CCNC(=O)c2cccc(S(=O)(=O)N3CCc4ccccc4C3)c2)cc1,inactive
5,COc1cc(/C=C/c2nc(C#N)c(NC(C)c3ccccc3)o2)cc(OC)c1OC (configuration not stated),"inconclusive: 25.1 µM [inhibitor, partial curve, poor fit]"
6,CC(C)c1nc(SCC(=O)Nc2nccs2)c2ccccc2n1,active: 31.6 µM
7,O=C(CCC1CCCCC1)Nc1ccccc1C(=O)N1CCOCC1,"inconclusive: 100 µM [inhibitor, partial curve, poor fit]"
8,CCN(CCCNc1cc2c(c(N)c1S(=O)(=O)O)C(=O)c1ccccc1C2=O)c1ccccc1,active: 25.1 µM
9,O=C(CCCN1C(=O)/C(=C/c2ccco2)SC1=S)Nc1cccc(C(=O)O)c1,active: 20 µM
10,O=c1c(Cl)c(O)c2cccc3c4ccccc4n1c23,"inconclusive: 7.94 µM [inhibitor, partial curve]"
11,CC(=O)Nc1ccc(Nc2nnc(-c3ccc(O)cc3)c3ccccc23)cc1,"inconclusive: 79.4 µM [inhibitor, partial curve, poor fit]"
12,O=C(NCC(c1cccs1)S(=O)(=O)c1cccs1)c1ccc(C(F)(F)F)cc1 (configuration not stated),"inconclusive: 79.4 µM [inhibitor, partial curve, poor fit]"
13,NC(=O)c1ccc(NC(=O)Cc2cccs2)cc1,active: 50.1 µM
14,Cc1ccc2nc3cc([N+](=O)[O-])cc([N+](=O)[O-])c3cc2c1,"inconclusive: 22.4 µM [inhibitor, partial curve, poor fit]"
15,COc1cccc(CN2CCN(C(=O)c3ccc(-c4ccccc4)cc3)CC2)c1,"inconclusive: 79.4 µM [inhibitor, partial curve, poor fit]"
16,CCN1C(=O)CC2CCCC1C2 (configuration not stated),inactive
17,Cc1ccc(C)c(S(=O)(=O)/N=C2\C=C(NS(=O)(=O)c3ccccc3)C(=O)c3ccccc32)c1,"inconclusive: 56.2 µM [inhibitor, partial curve, poor fit]"
18,COc1ccc(-c2cc(C(=O)Nc3ccc(S(=O)(=O)Nc4onc(C)c4C)cc3)c3ccccc3n2)cc1,"inconclusive: 89.1 µM [inhibitor, partial curve]"
19,CCOC(=O)c1cc(-c2ccccc2)sc1NC(=O)CC(C)C,"inconclusive: 28.2 µM [inhibitor, partial curve, poor fit]"
20,Cc1cc2c(cc1C)-n1c(-c3ccccc3)c3c(=O)n(C)c(=O)n(C)c3c1C(c1ccco1)N2 (configuration not stated),inactive
21,O=C(c1ccc2c3c(cccc13)CC2)N1CCOCC1,"inconclusive: 35.5 µM [inhibitor, partial curve, poor fit]"

row,Compound,Potency
1,CC(NC(=O)COC(=O)c1cc(NS(=O)(=O)c2ccc(Cl)c([N+](=O)[O-])c2)ccc1O)C1CC2CCC1C2 (configuration not stated),"inconclusive: 39.8 µM [inhibitor, partial curve, poor fit]"
2,Cc1nn(C)c2c1c(C(F)(F)F)cc(=O)n2C(C)C(=O)N1CCN(c2ccccc2)CC1 (configuration not stated),inactive
3,Cn1cc(S(=O)(=O)N2CCCCCC2)cc1C(=O)N1CCN(c2ccc(Cl)cc2)CC1,"inconclusive: 89.1 µM [inhibitor, partial curve]"
4,Cc1ccc(S(=O)(=O)N2CCN(C(=O)CCc3c[nH]c4ccccc34)CC2)c(C)c1,"inconclusive: 20 µM [inhibitor, partial curve, poor fit]"
5,Cc1ccc(C)c(NC(=O)Cn2nnc(C(=O)NCc3ccco3)c2N)c1,inactive
6,COc1ccc(Nc2nc(-c3cccnc3)nc3ccccc23)cn1,"inconclusive: 35.5 µM [inhibitor, partial curve, poor fit]"
7,CCCCOc1ccc(C2c3c(oc4ccccc4c3=O)C(=O)N2c2nc(C)c(C(=O)OCC)s2)cc1OC (configuration not stated),inactive
8,C#CCOCCOCCOCCNc1nc(N2CCN(C(=O)CCCCCCCCCCNC(=O)Cn3cc(CCCCCN)nn3)CC2)nc(N2CCN(C(=O)CCCCCCCCCCNC(=O)[C@@H]([C@H](C)O)n3cc(C)nn3)CC2)n1,inactive
9,O=C(C1=C(O)C(=O)N(c2nc3ccc(Cl)cc3s2)C1c1ccco1)c1ccco1 (configuration not stated),active: 20 µM
10,Cc1c(Cl)cnc(NC(=O)COC(=O)c2cccc(S(=O)(=O)N3c4ccccc4CC3C)c2)c1Cl (configuration not stated),"inconclusive: 22.4 µM [inhibitor, single point]"
11,COc1ccc(C(=O)c2cn(Cc3cccc(C)c3)c3cc4c(cc3c2=O)OCCO4)cc1OC,inactive
12,O=C(Nc1ccccc1Br)N1CCN2CCCCC2C1 (configuration not stated),"inconclusive: 56.2 µM [inhibitor, partial curve, poor fit]"
13,CCc1n[nH]c(=S)n1/N=C/c1cc(Br)c(OC)cc1OC,"inconclusive: 25.1 µM [inhibitor, single point]"
14,COc1ccccc1N1C(=N)S/C(=C\c2ccc(-c3ccccc3C(=O)O)o2)C1=O,active: 14.1 µM
15,O=C(CCC1N=C2c3ccccc3N=C(SCc3cccc(F)c3)N2C1=O)NCc1ccc(F)cc1 (configuration not stated),inactive
16,Cc1ccc(CCNC(=O)CN2CCN(Cc3ccc(Cl)cc3)C2=O)cc1,inactive
17,Cc1c(NC(=S)N/C(=N/S(=O)(=O)c2ccccc2)c2ccccc2)c(=O)n(-c2ccccc2)n1C,inactive
18,CC(=O)c1ccc(S(=O)(=O)Nc2ccc(C(=O)NCCCn3ccnc3)cc2)cc1,"inconclusive: 28.2 µM [inhibitor, full curve]"
19,COc1ccccc1OCC(=O)OCC(=O)Nc1sccc1C(N)=O,active: 25.1 µM
20,COc1cccc(/C=C/C(=O)OCC(=O)N2c3ccccc3NC(=O)C2(C)C)c1,"inconclusive: 5.01 µM [inhibitor, full curve, poor fit]"

# Source: PubChem BioAssay AID588591 (National Center for Advancing Translational Sciences (NCATS), 2011)
